In patent US20250205362A1, “LIPID NANOPARTICLES” (NATIONAL UNIVERSITY CORPORATION HOKKAIDO UNIVERSITY, priority 2022, published 2025):
For at least one compound, name, drawing or mass did not settle the structure.

Columns and labels:
[1] = system: TTR gene; experiment: Measurement of TTR-KO activity (serum TTR protein, ELISA); type: in vivo, mouse
Procedure: Lipid nanoparticles encapsulating Cas9/sgTTR-RNP (Cas9/sgTTR-RNP-loaded lipid nanoparticles) were intravenously injected to BALB/c mice (female, 4 weeks old) at the indicated doses. One week after intravenous injection, the mice were euthanized, blood was collected, and serum was isolated by centrifugation. The TTR protein concentration in the serum was determined using a commercially available ELISA kit (Prealbumin ELISA Kit (mouse), Aviva Systems Biology) according to the manufacturer's protocol. The serum TTR protein concentration of untreated mice was taken as 100%, and the relative value (%) of the serum TTR protein concentration of mice administered with each lipid nanoparticle was taken as the knockout activity (TTR-KO activity) of the lipid nanoparticle.

[2] = Encapsulation rate of lipid nanoparticles (Ribogreen); type: physicochemical
Procedure: The encapsulation rate of the lipid nanoparticles was calculated by measuring the amount of encapsulated nucleic acid (the amount of ssODN in the case of RNP-ssODN) using an RNA intercalator Ribogreen (manufactured by Life Technologies).

[3] = system: BALB/c mice; experiment: Measurement of Fluc activity in tissues after iv Fluc mRNA-loaded lipid nanoparticles; type: in vivo, mouse; settings: FIG. 18; 0.01 mg mRNA/kg; 6 hours; n=3
Procedure: First, lipid nanoparticles encapsulating Fluc mRNA (Fluc mRNA-loaded lipid nanoparticles) were intravenously injected into BALB/c mice (female, 4 weeks old) at a dose of 0.01 mg mRNA/kg body weight. Six hours after intravenous injection, the mice were euthanized, and each tissue was collected, frozen in liquid nitrogen, and stored at −80° C. The tissues were homogenized in passive lysis buffer (Promega) using a bead cell disrupter (Micro Smash MS-100R, TOMY Seiko). Tissue debris was removed by centrifugation and the supernatant was collected. Fluc activity in the supernatant was measured using a luciferase assay system (E1500, Promega) according to the manufacturer's protocol. Luminescence was measured using a luminometer (Luminescencer-PSN, ATTO). The protein concentration was determined using a commercially available measurement kit (BCA Protein Assay Kit, Pierce). Fluc activity was expressed as relative light units (RLU) per mg of protein.

[4] = Average particle diameter, PdI and zeta potential of lipid nanoparticles (dynamic light scattering); type: physicochemical
Procedure: The mean particle diameter (number average value), ζ-mean particle diameter, and polydispersity index (PdI) of the lipid nanoparticles in PBS(−) (pH 7.4), as well as the zeta potential in 10 mM HEPES buffer (pH 7.4), were measured using an analyzing device, Zetasizer Nano ZS ZEN3600 (Malvern), which utilizes dynamic light scattering.

[5] = Fluc mRNA-loaded LNP, comparison CL4F11-ζ-2, SM, ALC, MC3, Table 21
[6] = TTR-RNP-ssODN LNP with CL4F11-ζ-2, RNP/lipid 2.0%, PEG 1.5 mol%
[7] = TTR-RNP-ssODN LNP with CL4F11-ζ-2, RNP/lipid 2.0%, PEG 2.5 mol%
[8] = TTR-RNP-ssODN LNP with CL4F11-ζ-2, RNP/lipid 2.0%, PEG 3.5 mol%
[9] = TTR-RNP-ssODN LNP with CL4F11-ζ-2, RNP/lipid 4.0%, PEG 1.5 mol%
[10] = TTR-RNP-ssODN LNP with CL4F11-ζ-2, RNP/lipid 4.0%, PEG 2.5 mol%
[11] = TTR-RNP-ssODN LNP with CL4F11-ζ-2, RNP/lipid 4.0%, PEG 3.5 mol%
[12] = TTR-RNP-ssODN LNP with CL4F11-ζ-2, RNP/lipid 5.6%, PEG 1.5 mol%
[13] = TTR-RNP-ssODN LNP with CL4F11-ζ-2, RNP/lipid 5.6%, PEG 2.5 mol%
[14] = TTR-RNP-ssODN LNP with CL4F11-ζ-2, RNP/lipid 5.6%, PEG 3.5 mol%
[15] = TTR-RNP-ssODN LNP, CL4F11-ζ-2 (CL) 40 mol%, DSPC (PC) 5 mol%, PEG-DMG 3.5
[16] = TTR-RNP-ssODN LNP, CL4F11-ζ-2 (CL) 40 mol%, DSPC (PC) 10 mol%, PEG-DMG 3.5
[17] = TTR-RNP-ssODN LNP, CL4F11-ζ-2 (CL) 50 mol%, DSPC (PC) 5 mol%, PEG-DMG 3.5
[18] = TTR-RNP-ssODN LNP, CL4F11-ζ-2 (CL) 50 mol%, DSPC (PC) 10 mol%, PEG-DMG 3.5
[19] = TTR-RNP-ssODN LNP, CL4F11-ζ-2 (CL) 60 mol%, DSPC (PC) 5 mol%, PEG-DMG 3.5
[20] = TTR-RNP-ssODN LNP, CL4F11-ζ-2 (CL) 60 mol%, DSPC (PC) 10 mol%, PEG-DMG 3.5
[21] = TTR-RNP-ssODN-loaded LNP (ssODN-TTR_3-40%), cationic lipid/DSPC/cholesterol/PEG-DMG 50/10/40/3.5 mol%, Table 17
[22] = TTR-RNP-ssODN-loaded LNP in sucrose-containing Tris buffer, frozen sample (−80° C., thawed)
[23] = TTR-RNP-ssODN-loaded LNP in sucrose-containing Tris buffer, non-frozen sample
[24] = TTR-RNP-ssODN-loaded LNP, comparison CL4F11-ζ-2, SM, ALC, MC3, Table 20

## CCCCC(CC)CCCCCC(=O)OCCCCCCC(O)(CCCCCCOC(=O)CCCCCC(CC)CCCC)CCCCN(CCC)CCC (stereo not drawn) [CL4F11-ζ-2, 7-(4-(dipropylamino)butyl)-7-hydroxytridecane-1,13-diylbis(7-ethylundecanoate)]
[1]; FIG. 15(B), 0.2, 0.75, or 2.0 mg RNP/kg
  knockout activity versus dose: increased in a dose-dependent manner
[1]; FIG. 17, 2.0 mg RNP/kg, 7 days, n=3
  gene knockout activity versus SM, ALC, MC3: significantly superior gene knockout activity
[1]; FIG. 19, freeze-thaw stability, 7 days, n=3
  gene knockout activity, frozen versus non-frozen sample: hardly affected by the freeze-thaw treatment
[2]; [5]
  Encapsulation rate: 68.7%
[2]; [6]
  Encapsulation rate: 68.6%
[2]; [7]
  Encapsulation rate: 86.7%
[2]; [8]
  Encapsulation rate: 93.8%
[2]; [9]
  Encapsulation rate: 56.7%
[2]; [10]
  Encapsulation rate: 73.9%
[2]; [11]
  Encapsulation rate: 82.4%
[2]; [12]
  Encapsulation rate: 59.0%
[2]; [13]
  Encapsulation rate: 67.8%
[2]; [14]
  Encapsulation rate: 79.0%
[2]; [15]
  Encapsulation rate: 64.1%
[2]; [16]
  Encapsulation rate: 63.1%
[2]; [17]
  Encapsulation rate: 70.5%
[2]; [18]
  Encapsulation rate: 61.5%
[2]; [19]
  Encapsulation rate: 84.1%
[2]; [20]
  Encapsulation rate: 83.1%
[2]; [21]
  Encapsulation rate: 71.4%
[2]; [22]
  Encapsulation rate: 48.1%
[2]; [23]
  Encapsulation rate: 57.6%
[2]; [24]
  Encapsulation rate: 60.0%
[3]
  gene expression activity (Fluc) in liver or spleen versus SM, ALC, MC3: about the same as or greater than that of other Fluc mRNA-loaded lipid nanoparticles
  gene expression activity (Fluc) in the spleen versus SM, ALC, MC3: superior to that of any of the Fluc mRNA-loaded lipids containing SM, ALC, or MC3
[4]; [5]
  Number-average particle diameter: 80.5 nm
  PdI: 0.151
  ζ-average: 150.5 nm
  ζ-potential: −3.87 mV
[4]; [6]
  Number-average particle diameter: 137.0 nm
  PdI: 0.104
  ζ-average: 174.6 nm
  ζ-potential: 2.83 mV
[4]; [7]
  Number-average particle diameter: 107.4 nm
  PdI: 0.213
  ζ-average: 179.2 nm
  ζ-potential: 4.97 mV
[4]; [8]
  Number-average particle diameter: 93.5 nm
  PdI: 0.182
  ζ-average: 136.0 nm
  ζ-potential: 3.84 mV
[4]; [9]
  Number-average particle diameter: 127.3 nm
  PdI: 0.239
  ζ-average: 202.1 nm
  ζ-potential: −0.51 mV
[4]; [10]
  Number-average particle diameter: 121.2 nm
  PdI: 0.077
  ζ-average: 152.3 nm
  ζ-potential: 1.59 mV
[4]; [11]
  Number-average particle diameter: 93.5 nm
  PdI: 0.128
  ζ-average: 132.1 nm
  ζ-potential: 4.25 mV
[4]; [12]
  Number-average particle diameter: 140.9 nm
  PdI: 0.156
  ζ-average: 187.2 nm
  ζ-potential: −0.14 mV
[4]; [13]
  Number-average particle diameter: 109.8 nm
  PdI: 0.129
  ζ-average: 164.7 nm
  ζ-potential: 2.81 mV
[4]; [14]
  Number-average particle diameter: 96.2 nm
  PdI: 0.198
  ζ-average: 155.1 nm
  ζ-potential: 2.73 mV
[4]; [15]
  Number-average particle diameter: 129.3 nm
  PdI: 0.090
  ζ-average: 165.3 nm
  ζ-potential: 2.49 mV
[4]; [16]
  Number-average particle diameter: 145.2 nm
  PdI: 0.214
  ζ-average: 243.3 nm
  ζ-potential: 3.98 mV
[4]; [17]
  Number-average particle diameter: 128.0 nm
  PdI: 0.091
  ζ-average: 163.2 nm
  ζ-potential: 3.01 mV
[4]; [18]
  Number-average particle diameter: 150.9 nm
  PdI: 0.118
  ζ-average: 186.7 nm
  ζ-potential: 1.90 mV
[4]; [19]
  Number-average particle diameter: 117.4 nm
  PdI: 0.078
  ζ-average: 153.6 nm
  ζ-potential: 1.59 mV
[4]; [20]
  Number-average particle diameter: 106.7 nm
  PdI: 0.074
  ζ-average: 132.7 nm
  ζ-potential: 2.25 mV
[4]; [21]
  Number-average particle diameter: 89.9 nm
  PdI: 0.230
  ζ-average: 192.4 nm
  ζ-potential: −1.34 mV
[4]; [22]
  Number-average particle diameter: 120.5 nm
  PdI: 0.070
  ζ-average: 142.6 nm
  ζ-potential: 1.65 mV
[4]; [23]
  Number-average particle diameter: 116.9 nm
  PdI: 0.054
  ζ-average: 144.0 nm
  ζ-potential: −0.35 mV
[4]; [24]
  Number-average particle diameter: 98.4 nm
  PdI: 0.113
  ζ-average: 140.2 nm
  ζ-potential: 3.61 mV
